Among all 420,000 compounds or so, about 64,000 (15%) were called active. The shares of active, inactive and inconclusive entries below differ from those in the screen. The call rests on the fitted dose curve; in most records, active means well fitted inhibition curve with a large enough effect; inconclusive means small, poorly fitted or top-dose-only effect; inactive means flat fitted curve, though single readings scatter. Potencies of inconclusive entries are left out as doubtful fits.
Assay: qHTS for Inhibitors of human tyrosyl-DNA phosphodiesterase 1 (TDP1): qHTS in cells in absence of CPT; further: nearly all actives have a fitted effect of over 55% in size
Conditions: DT40 Tdp1-/- hTDP1 cells, no CPT, ATP luminescence, 48 h; series mostly up to 46.2 µM
Outline: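 Chicken DT40 Tdp1-/- cells stably complemented with human TDP1 were seeded at 400 cells/well with DMSO in place of 20 nM camptothecin. After compound pinning, cells grew at least 48 hr at 37 °C; viability read by CellTiter-Glo luminescence.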
In the case of CCOc1ccccc1OCCN1CCCC1, the Potency is reported as “inactive”.
With COc1ccc(C2=Nc3ccccc3N(C(=O)c3ccc(C)cc3)C2C(=O)Nc2c(C)cccc2C)cc1 (centres undefined) the Potency was inconclusive [inhibitor, single point].
With CCOc1ccc(OCC)c(NS(=O)(=O)c2cn(C)cn2)c1 the Potency was “inactive”.
With Cc1ccc(NC(=O)C(=O)NCCN2CCN(C(=S)Nc3ccccc3)CC2)cc1 the Potency was inconclusive [inhibitor, single point].
With CCn1cnc2cc(NCc3ccc(Br)cc3)ccc21 the Potency was inconclusive [inhibitor, single point].
In the case of COc1ccc(-c2csc3nc(-c4cccnc4)nc(N4CCC(C(N)=O)CC4)c23)cc1OC, the Potency is reported as inconclusive [inhibitor, single point].
With Cc1ccc(NC(=O)CSCc2ccco2)cc1 the Potency was “inactive”.
With CC1CCc2c(sc3nc(C4CC4)nc(N4CCN(C(=O)c5ccco5)CC4)c23)C1 (centres undefined) the Potency was inconclusive [inhibitor, single point].
For O=c1oc2cc(O)ccc2cc1-c1nc2c(s1)CCc1ccccc1-2, the Potency was inconclusive [inhibitor, partial curve, poor fit].
For CC(C)OCCCNC(=O)c1cc(-c2cccs2)nc2ccccc12, the Potency was inconclusive [inhibitor, partial curve].
In the case of COc1ccc(C(C#N)=Cc2ccc(N(C)CCC#N)cc2)cc1, the Potency is reported as active: 25.9 µM.
In the case of Clc1ccc(C2Nc3cccc4cccc(c34)N2)cc1, the Potency is reported as inconclusive [inhibitor, partial curve].
In the case of COc1ccc(-c2c3c(=O)n(C)c(=O)n(C)c3c3c(-c4cccc(C)c4)nc4ccccc4n23)cc1, the Potency is reported as active: 20.6 µM.
For CCc1ccc(N(CC(=O)N2CCOCC2)S(C)(=O)=O)cc1, the Potency was “inactive”.
For CCc1cc(CNC(=O)CCc2nnc(Cc3cccc(C)c3)o2)on1, the Potency was “inactive”.
With CCN(CC)C(=O)c1sc2nc(-c3ccc(OC)cc3)cn2c1C the Potency was inconclusive [inhibitor, single point].
For CC(C)(C)n1ncc2c(=O)n(CC(=O)NCc3ccccc3)cnc21, the Potency was active: 6.51 µM.
In the case of Cc1cc(C(=O)Nc2ccc(Br)cc2F)n(-c2ccccc2)n1, the Potency is reported as “inactive”.
In the case of CCOc1ccc(NC(=O)Cn2cc(C(=O)c3ccc(CC)cc3)c(=O)c3cc(OC)c(OC)cc32)cc1, the Potency is reported as inconclusive [inhibitor, single point].
With N/C(=N\OC(=O)Nc1ccc(Cl)c(Cl)c1)c1ncc(C(F)(F)F)cc1Cl the Potency was inconclusive [inhibitor, single point].
With O=C(Cn1nnc(-c2ccc(Cl)cc2)n1)NC1CCN(Cc2ccccc2)CC1 the Potency was inconclusive [inhibitor, single point].
In the case of Cc1ccc(NC(=O)Cn2nc(-c3ccncc3)ccc2=O)cc1Cl, the Potency is reported as inconclusive [inhibitor, single point].
For COc1ccc(C(=O)/C=C/c2cc(C(=O)O)cc3c2OCOC3)c(O)c1, the Potency was active: 23.1 µM.
For Cc1cc(C(=O)N2CCc3ccccc3C2)c(C)o1, the Potency was inconclusive [inhibitor, single point].
In the case of Cc1ccc(CNC(=O)CSc2nc3[nH]ncc3c(=O)[nH]2)cc1, the Potency is reported as inconclusive [inhibitor, single point].
In the case of COc1ccc(S(=O)(=O)NCC(=O)NCCc2ccc(OC)c(OC)c2)cc1, the Potency is reported as “inactive”.
In the case of CCC1OC(C)Cc2[nH][nH]c(=O)c21 (centres undefined), the Potency is reported as “inactive”.
With CC(C)CCNC(=O)CSc1nc2ccccc2nc1Cc1ccccc1 the Potency was inconclusive [inhibitor, partial curve].
In the case of Cc1cc(-c2nnc(CCC(=O)NC(c3ccccc3)c3ccccc3)o2)no1, the Potency is reported as inconclusive [inhibitor, single point].
For CCc1ccc(-n2c(=O)c3sc4ccccc4c3n(CC(=O)NC3CCCCC3)c2=O)cc1, the Potency was inconclusive [inhibitor, single point].
For CCC(=O)N=c1sc2cc(F)cc(F)c2n1C, the Potency was “inactive”.
With CC(=O)c1c(C)[nH]c(C(=O)OCc2cccc(Cl)c2)c1C the Potency was inconclusive [inhibitor, single point].
With Cc1cccnc1NC(=O)C1CCCN1S(=O)(=O)c1ccc(Cl)cc1 (centres undefined) the Potency was “inactive”.
In the case of Brc1cccc(-c2nc(-c3ccncc3)no2)c1, the Potency is reported as inconclusive [inhibitor, partial curve, poor fit].
For O=C(CCn1c(=O)c2ccccc2n(CC(=O)NC2CCCC2)c1=O)NCCc1ccc(Cl)cc1, the Potency was “inactive”.
In the case of COc1cc(NC(=O)c2cc3nc(C)cc(C)n3n2)c(OC)cc1Cl, the Potency is reported as inconclusive [inhibitor, partial curve, poor fit].
For O=[N+]([O-])c1ccc(NN=Cc2cc(Br)ccc2O)nc1, the Potency was active: 1.3 µM.
In the case of O=C(Cc1ccc(F)cc1)NC(Cc1c[nH]c2ccccc12)C(=O)O (centres undefined), the Potency is reported as “inactive”.
With COc1ccc(N(CC(=O)N/N=C/c2cccnc2)S(=O)(=O)c2ccc(C)cc2)cc1OC the Potency was “inactive”.
In the case of CCOC(=O)COc1c(Cl)cc(C2NC(=S)NC(c3ccccc3)=C2C(C)=O)cc1OC (centres undefined), the Potency is reported as “inactive”.
For Cc1cc(NC(=O)CCS(=O)(=O)c2cc(Br)cc3c2N(C(=O)C2CC2)CC3)ccc1Br, the Potency was “inactive”.
With CON(c1nc(Cl)nc(N(C)C)n1)S(=O)(=O)c1ccc(C)cc1 the Potency was active: 16.4 µM.
With O=C(COC(=O)c1nc(Cl)ccc1Cl)NCc1ccc(Cl)cc1 the Potency was inconclusive [inhibitor, full curve, poor fit].
In the case of Cc1[nH]n(-c2ccc([N+](=O)[O-])cc2)c(=O)c1C=NCC1CCCO1 (centres undefined), the Potency is reported as active: 10.3 µM.
In the case of O=C(CN1C(=O)NC2(CCCC2)C1=O)OCCOc1ccc(Cl)cc1, the Potency is reported as inconclusive [inhibitor, single point].
With CC(C)OC(=O)CC1C(=O)NCCN1C(=O)COc1ccc(C(C)(C)C)cc1 (centres undefined) the Potency was “inactive”.
In the case of CNc1cnc(-c2cc(OC)c(OC)c(OC)c2)cn1, the Potency is reported as “inactive”.
With Cc1[nH]c2ccccc2c1C(=O)COC(=O)C(C)C the Potency was “inactive”.
With COC(=O)c1c(NC(=O)C2C3C=CC(CC3)C2C(=O)O)sc(C)c1C (centres undefined) the Potency was inconclusive [inhibitor, full curve, poor fit].

Source: PubChem BioAssay AID686978 (National Center for Advancing Translational Sciences (NCATS), 2013)
Potency means the concentration at half of the fitted maximal effect; tags describe the fitted curve by direction and shape.
